According to patent publication US9873709B2 (priority 2013, dated 2018):

The compounds below were run against isolated recombinant JAK1 kinase domain (Homo sapiens (Human), UniProt P23458). Settings: read-out: JAK1 Ki; isolated recombinant JAK1 kinase domain, 25 μM ATP.

Compound	Ki
O=C(CCC(F)(F)F)N1CC=C(c2cccn3nc(Nc4ccc(C(=O)N5CCC(N6CCCC6)CC5)cc4)nc23)CC1 [Example 2-46, 4,4,4-trifluoro-1-[4-[2-[4-(4-pyrrolidin-1-ylpiperidine-1-carbonyl)anilino]-[1,2,4]triazolo[1,5-a]pyridin-8-yl]-3,6-dihydro-2H-pyridin-1-yl]butan-1-one]	1.4 nM
CC1CCCCN1CCCNC(=O)c1ccc(Nc2nc3c(C4=CCN(C(=O)CCC(F)(F)F)CC4)cccn3n2)cc1 (centres unmarked) [Example 2-47, N-[3-(2-methyl-1-piperidyl)propyl]-4-[[8-[1-(4,4,4-trifluorobutanoyl)-3,6-dihydro-2H-pyridin-4-yl]-[1,2,4]triazolo[1,5-a]pyridin-2-yl]amino]benzamide]	0.73 nM
CN1CCCC1CCNC(=O)c1ccc(Nc2nc3c(C4=CCN(C(=O)CCC(F)(F)F)CC4)cccn3n2)cc1 (centres unmarked) [Example 2-48, N-[2-(1-methylpyrrolidin-2-yl)ethyl]-4-[[8-[1-(4,4,4-trifluorobutanoyl)-3,6-dihydro-2H-pyridin-4-yl]-[1,2,4]triazolo[1,5-a]pyridin-2-yl]amino]benzamide]	0.71 nM
Cc1ccc(C2CCCN(C(=O)c3ccc(Nc4nc5c(C6=CCN(C(=O)CCC(F)(F)F)CC6)cccn5n4)cc3)C2)nc1 (centres unmarked) [Example 2-50, 4,4,4-tri fluoro-1-[4-[2-[4-[3-(5-methyl-2-pyridyl)piperidine-1-carbonyl]anilino]-[1,2,4]triazolo[1,5-a]pyridin-8-yl]-3,6-dihydro-2H-pyridin-1-yl]butan-1-one]	1.21 nM
CN1CCC(N(C)C(=O)c2ccc(Nc3nc4c(C5=CCN(CC#N)CC5)cccn4n3)cc2)CC1 [Example 2-52, 4-[[8-[1-(cyanomethyl)-3,6-dihydro-2H-pyridin-4-yl]-[1,2,4]triazolo[1,5-a]pyridin-2-yl]amino]-N-methyl-N-(1-methyl-4-piperidyl)benzamide]	6.19 nM
COC1CC(C(=O)N2CC=C(c3cccn4nc(Nc5ccc(C(=O)N(C)C6CCN(C)CC6)cc5)nc34)CC2)C1 (centres unmarked) [Example 2-53, 4-[[8-[1-(3-methoxycyclobutanecarbonyl)-3,6-dihydro-2H-pyridin-4-yl]-[1,2,4]triazolo[1,5-a]pyridin-2-yl]amino]-N-methyl-N-(1-methyl-4-piperidyl)benzamide]	15.3 nM
CN1CCC(N(C)C(=O)c2ccc(Nc3nc4c(C5=CCN(C(=O)CC(C)(C)C)CC5)cccn4n3)cc2)CC1 [Example 2-54, 4-[[8-[1-(3,3-dimethylbutanoyl)-3,6-dihydro-2H-pyridin-4-yl]-[1,2,4]triazolo[1,5-a]pyridin-2-yl]amino]-N-methyl-N-(1-methyl-4-piperidyl)benzamide]	3.29 nM
CCOC(=O)N1CC=C(c2cccn3nc(Nc4ccc(C(=O)N5CC(NC)C5)cc4)nc23)CC1 [Example 2-55, Ethyl 4-[2-[4-[3-(methylamino)azetidine-1-carbonyl]anilino]-[1,2,4]triazolo[1,5-a]pyridin-8-yl]-3,6-dihydro-2H-pyridine-1-carboxylate]	1.75 nM
CCOC(=O)N1CC=C(c2cccn3nc(Nc4ccc(C(=O)NCCCN5CCOCC5)cc4)nc23)CC1 [Example 2-56, ethyl 4-[2-[4-(3-morpholinopropylcarbamoyl)anilino]-[1,2,4]triazolo[1,5-a]pyridin-8-yl]-3,6-dihydro-2H-pyridine-1-carboxylate]	1.42 nM
CCOC(=O)N1CC=C(c2cccn3nc(Nc4ccc(C(=O)NCCN5CCN(C)CC5)cc4)nc23)CC1 [Example 2-57, ethyl 4-[2-[4-[2-(4-methylpiperazin-1-yl)ethylcarbamoyl]anilino]-[1,2,4]triazolo[1,5-a]pyridin-8-yl]-3,6-dihydro-2H-pyridine-1-carboxylate]	2.75 nM
CCOC(=O)N1CC=C(c2cccn3nc(Nc4ccc(C(=O)NC5CN(C)C5)cc4)nc23)CC1 [Example 2-58, ethyl 4-[2-[4-[(1-methylazetidin-3-yl)carbamoyl]anilino]-[1,2,4]triazolo[1,5-a]pyridin-8-yl]-3,6-dihydro-2H-pyridine-1-carboxylate]	2.69 nM
CCOC(=O)N1CC=C(c2cccn3nc(Nc4ccc(C(=O)N(C)CCc5ccccn5)cc4)nc23)CC1 [Example 2-59, ethyl 4-[2-[4-[methyl-[2-(2-pyridyl)ethyl]carbamoyl]anilino]-[1,2,4]triazolo[1,5-a]pyridin-8-yl]-3,6-dihydro-2H-pyridine-1-carboxylate]	2.39 nM
CCOC(=O)N1CC=C(c2cccn3nc(Nc4ccc(C(=O)NC5CCN(C)CC5)cc4)nc23)CC1 [Example 2-60, ethyl 4-[2-[4-[(1-methyl-4-piperidyl)carbamoyl]anilino]-[1,2,4]triazolo[1,5-a]pyridin-8-yl]-3,6-dihydro-2H-pyridine-1-carboxylate]	1.29 nM
CCOC(=O)N1CC=C(c2cccn3nc(Nc4ccc(C(=O)N(C)CC5CCCN(C)C5)cc4)nc23)CC1 (centres unmarked) [Example 2-61, ethyl 4-[2-[4-[methyl-[(1-methyl-3-piperidyl)methyl]carbamoyl]anilino]-[1,2,4]triazolo[1,5-a]pyridin-8-yl]-3,6-dihydro-2H-pyridine-1-carboxylate]	3.64 nM
CCOC(=O)N1CC=C(c2cccn3nc(Nc4ccc(C(=O)N5CCC(c6ccncc6)C5)cc4)nc23)CC1 (centres unmarked) [Example 2-62, ethyl 4-[2-[4-[3-(4-pyridyl)pyrrolidine-1-carbonyl]anilino]-[1,2,4]triazolo[1,5-a]pyridin-8-yl]-3,6-dihydro-2H-pyridine-1-carboxylate]	1.09 nM
CCOC(=O)N1CC=C(c2cccn3nc(Nc4ccc(C(=O)N5CCC(N6CC(C)OC(C)C6)CC5)cc4)nc23)CC1 (centres unmarked) [Example 2-63, ethyl 4-[2-[4-[4-(2,6-dimethylmorpholin-4-yl)piperidine-1-carbonyl]anilino]-[1,2,4]triazolo[1,5-a]pyridin-8-yl]-3,6-dihydro-2H-pyridine-1-carboxylate]	2.84 nM
CCOC(=O)N1CC=C(c2cccn3nc(Nc4ccc(C(=O)N5CCN(CCN6CCOCC6)CC5)cc4)nc23)CC1 [Example 2-64, ethyl 4-[2-[4-[4-(2-morpholinoethyl)piperazine-1-carbonyl]anilino]-[1,2,4]triazolo[1,5-a]pyridin-8-yl]-3,6-dihydro-2H-pyridine-1-carboxylate]	2.77 nM
CCOC(=O)N1CC=C(c2cccn3nc(Nc4ccc(C(=O)N(C)CC5CCN(C(C)C)C5)cc4)nc23)CC1 (centres unmarked) [Example 2-65, ethyl 4-[2-[4-[(1-isopropylpyrrolidin-3-yl)methyl-methyl-carbamoyl]anilino]-[1,2,4]triazolo[1,5-a]pyridin-8-yl]-3,6-dihydro-2H-pyridine-1-carboxylate]	2.57 nM
CCOC(=O)N1CC=C(c2cccn3nc(Nc4ccc(C(=O)N5CCC(N6CCOCC6)C5)cc4)nc23)CC1 (centres unmarked) [Example 2-66, ethyl 4-[2-[4-(3-morpholinopyrrolidine-1-carbonyl)anilino]-[1,2,4]triazolo[1,5-a]pyridin-8-yl]-3,6-dihydro-2H-pyridine-1-carboxylate]	2.41 nM
CCOC(=O)N1CC=C(c2cccn3nc(Nc4ccc(C(=O)N5CCCC5c5ccc(C)cn5)cc4)nc23)CC1 (centres unmarked) [Example 2-67, ethyl 4-[2-[4-[2-(5-methyl-2-pyridyl)pyrrolidine-1-carbonyl]anilino]-[1,2,4]triazolo[1,5-a]pyridin-8-yl]-3,6-dihydro-2H-pyridine-1-carboxylate]	2.94 nM
